# Assay results: the supplement of paper PMC8728848
# Some of the results follow.
# How the values were obtained:
# Assay in all cases: glycan array binding signal (z-score within array); higher = stronger binding
# Conditions in all cases: glycan notation: IUPAC condensed, linker removed
# [1] = molecular target: Neu5Ac(a2-3)Gal(b1-3)GalNAc(b1-3)Gal(a1-4)Gal(b1-4)Glc
# Summary of the method: (§1)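 Glycan array data came from 3228 arrays in the Consortium for Functional Glycomics database, and only arrays with an available protein sequence were kept. Glycan names were put into IUPAC-condensed notation, and columns mapping to the same glycan were averaged. The binding signal is a within-array Z-score, averaged across arrays of one protein sequence run at different concentrations or buffers and across linkers. A negative Z-score can be read as non-binding.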
# [2] = molecular target: Neu5Ac(a2-3)Gal(b1-3)GalNAc(b1-4)Gal(b1-4)Glc
# Summary of the method: as §1
# [3] = molecular target: Neu5Ac(a2-3)Gal(b1-3)GalNAc(b1-4)[Neu5Ac(a2-3)]Gal(b1-4)Glc
# Summary of the method: as §1
# [4] = molecular target: Neu5Ac(a2-3)Gal(b1-3)GalNAc(b1-4)[Neu5Ac(a2-8)Neu5Ac(a2-3)]Gal(b1-4)Glc
# Summary of the method: as §1
# [5] = molecular target: Neu5Ac(a2-3)Gal(b1-3)GalNAc6S
# Summary of the method: as §1
# [6] = molecular target: Neu5Ac(a2-3)Gal(b1-3)GlcNAc
# Summary of the method: as §1
# [7] = molecular target: Neu5Ac(a2-3)Gal(b1-3)GlcNAc(b1-2)Man
# Summary of the method: as §1
# [8] = molecular target: Neu5Ac(a2-3)Gal(b1-3)GlcNAc(b1-2)Man(a1-3)[GlcNAc(b1-4)][Neu5Ac(a2-3)Gal(b1-3)GlcNAc(b1-2)Man(a1-6)]Man(b1-4)GlcNAc(b1-4)GlcNAc
# Summary of the method: as §1
# [9] = molecular target: Neu5Ac(a2-3)Gal(b1-3)GlcNAc(b1-2)Man(a1-3)[Neu5Ac(a2-3)Gal(b1-3)GlcNAc(b1-2)Man(a1-6)]Man(b1-4)GlcNAc(b1-4)GlcNAc
# Summary of the method: as §1
# [10] = molecular target: Neu5Ac(a2-3)Gal(b1-3)GlcNAc(b1-2)[Neu5Ac(a2-3)Gal(b1-3)GlcNAc(b1-4)]Man(a1-6)[Neu5Ac(a2-3)Gal(b1-3)GlcNAc(b1-2)Man(a1-3)]Man(b1-4)GlcNAc(b1-4)GlcNAc
# Summary of the method: as §1
# [11] = molecular target: Neu5Ac(a2-3)Gal(b1-3)GlcNAc(b1-3)Gal(b1-3)GlcNAc
# Summary of the method: as §1
# [12] = molecular target: Neu5Ac(a2-3)Gal(b1-3)GlcNAc(b1-3)Gal(b1-4)GlcNAc
# Summary of the method: as §1
# [13] = molecular target: Neu5Ac(a2-3)Gal(b1-3)GlcNAc(b1-3)GalNAc
# Summary of the method: as §1
# [14] = molecular target: Neu5Ac(a2-3)Gal(b1-3)GlcNAc(b1-6)GalNAc
# Summary of the method: as §1
# [15] = molecular target: Neu5Ac(a2-3)Gal(b1-3)GlcNAc6S
# Summary of the method: as §1
# [16] = molecular target: Neu5Ac(a2-3)Gal(b1-3)[Fuc(a1-4)]GlcNAc
# Summary of the method: as §1
# [17] = molecular target: Neu5Ac(a2-3)Gal(b1-3)[Fuc(a1-4)]GlcNAc(b1-3)Gal(b1-3)[Fuc(a1-4)]GlcNAc
# Summary of the method: as §1
# [18] = molecular target: Neu5Ac(a2-3)Gal(b1-3)[Fuc(a1-4)]GlcNAc(b1-3)Gal(b1-4)[Fuc(a1-3)]GlcNAc
# Summary of the method: as §1
# [19] = molecular target: Neu5Ac(a2-3)Gal(b1-3)[GlcNAc(b1-6)]GalNAc
# Summary of the method: as §1
# [20] = molecular target: Neu5Ac(a2-3)Gal(b1-3)[Neu5Ac(a2-3)Gal(b1-4)]GlcNAc
# Summary of the method: as §1
# [21] = molecular target: Neu5Ac(a2-3)Gal(b1-3)[Neu5Ac(a2-6)]GalNAc
# Summary of the method: as §1
# [22] = molecular target: Neu5Ac(a2-3)Gal(b1-3)[Neu5Ac(a2-6)]GlcNAc(b1-3)[Fuc(a1-3)[Gal(b1-4)]GlcNAc(b1-6)]Gal(b1-4)Glc
# Summary of the method: as §1
# [23] = molecular target: Neu5Ac(a2-3)Gal(b1-3)]Neu5Ac(a2-3)Gal(b1-4)]GlcNAc
# Summary of the method: as §1
# [24] = molecular target: Neu5Ac(a2-3)Gal(b1-4)Glc
# Summary of the method: as §1
# [25] = molecular target: Neu5Ac(a2-3)Gal(b1-4)GlcNAc
# Summary of the method: as §1
# [26] = molecular target: Neu5Ac(a2-3)Gal(b1-4)GlcNAc(b1-2)Man
# Summary of the method: as §1
# [27] = molecular target: Neu5Ac(a2-3)Gal(b1-4)GlcNAc(b1-2)Man(a1-3)[GlcNAc(b1-2)Man(b1-4)GlcNAc(b1-2)Man(a1-6)]Man(b1-4)GlcNAc(b1-4)GlcNAc
# Summary of the method: as §1
# [28] = molecular target: Neu5Ac(a2-3)Gal(b1-4)GlcNAc(b1-2)Man(a1-3)[GlcNAc(b1-4)][Neu5Ac(a2-3)Gal(b1-4)GlcNAc(b1-2)Man(a1-6)]Man(b1-4)GlcNAc(b1-4)GlcNAc
# Summary of the method: as §1
# [29] = molecular target: Neu5Ac(a2-3)Gal(b1-4)GlcNAc(b1-2)Man(a1-3)[Neu5Ac(a2-3)Gal(b1-4)GlcNAc(b1-2)Man(a1-6)]Man(b1-4)GlcNAc(b1-4)GlcNAc
# Summary of the method: as §1
# [30] = molecular target: Neu5Ac(a2-3)Gal(b1-4)GlcNAc(b1-2)Man(a1-3)[Neu5Ac(a2-3)Gal(b1-4)GlcNAc(b1-2)Man(a1-6)]Man(b1-4)GlcNAc(b1-4)[Fuc(a1-6)]GlcNAc
# Summary of the method: as §1
binder,measurement,setting,value
"Epa1-NP (Candida glabrata), Q6VBJ0 (protein) MILNPALFLNKCVCIYTTLILLLLTNGGYATSSNDISLASKDPTTFPLGCSPDITTPKKGLSMELYSYDFRKKGSYPCWDAAYLDPNYPRTGYKSHRLLAKVDGVTGNINFYYHATKGCTPQLGHLPASYNYPKPLTMTNFTMLLYGYFRPKVTGFHTFTISADDLLFVNFGAGNAFDCCRRDSSADHFGNYQAYAIWGSKTAKDELTVHLDAGVYYPIRLFYNNREYDGALSFTFKTESNENTVSDFSEYFFSLDDTEEGCPGLISYDSSCASVKTSKIIGIDYHTETPNENLVPITKTIYHLGIPCTGTTTTPLCGSGFYDPLANKCVTINTSSTSSVTKTTSHTTSKEVSFHSSISSQKTLIPKSIPSPYGPIKSQSIPTEMETSSEISSSEYAFSDVISTPSHSPYTKKHSSLNSSSYTSTVIHSLTSYSISQGIFSTSLSEQNITSKSSTDKFSTATSMSNNITQSSIIISQFSTNNENYTTTSMHTSSDKISTETLNNSISTTTSILFSNSSTILKNNTTIISSDKDTHYHPVNPTIVCSTNKTEIICASITQPSISNSNNHWSSSVLKFNSTTVRSTLPSSAGSNETSINVPFSSSTESNTSTSSTSTSNSKMVRSTLPSSAGSNETSISVPFSSSTESNTSTSSTSTSNSKMVRSTLPSSAGSNETSINVPFSSSTESNTSTSSTSTSNSKTVRSTPFSSAGIIMTSLSQRNNKSASSYASSNSKCYNTADSCRKVHSTPSYLLTSSYTSEGVDYDCSLVSTKLKINDTNCVNNKHTTKSCLKTSVTTTIPTLEIKTARKSSSNTIGLHSYPTSSPNKSISSAPIIGYISSFKTIKTASPSYQTSDLTTITTITSLNNPGSTAVENTHESNDKSRKTSSNDISSKHSVIKETKDAVESSNKSHQTNTLKCSSIIIASSSHNSYESLGGTTLTLTLSKVYSPQNNDTLPFLEISEVNPSRTVLPESSKMMQYLTSTEERNKTARNTIATNIVSISTFHFEGEGNAIRMGYTQLLLMLIGIIVMNIGT",glycan array binding signal (z-score),[1],-0.274
same,glycan array binding signal (z-score),[2],-0.285
same,glycan array binding signal (z-score),[3],-0.327
same,glycan array binding signal (z-score),[4],-0.253
same,glycan array binding signal (z-score),[5],-0.313
same,glycan array binding signal (z-score),[6],-0.313
same,glycan array binding signal (z-score),[7],-0.288
same,glycan array binding signal (z-score),[8],-0.284
same,glycan array binding signal (z-score),[9],-0.273
same,glycan array binding signal (z-score),[10],-0.278
same,glycan array binding signal (z-score),[11],-0.326
same,glycan array binding signal (z-score),[12],-0.313
same,glycan array binding signal (z-score),[13],-0.292
same,glycan array binding signal (z-score),[14],-0.284
same,glycan array binding signal (z-score),[15],-0.337
same,glycan array binding signal (z-score),[16],-0.315
same,glycan array binding signal (z-score),[17],-0.259
same,glycan array binding signal (z-score),[18],-0.397
same,glycan array binding signal (z-score),[19],-0.29
same,glycan array binding signal (z-score),[20],-0.345
same,glycan array binding signal (z-score),[21],-0.231
same,glycan array binding signal (z-score),[22],-0.277
same,glycan array binding signal (z-score),[23],-0.287
same,glycan array binding signal (z-score),[24],-0.325
same,glycan array binding signal (z-score),[25],-0.307
same,glycan array binding signal (z-score),[26],-0.274
same,glycan array binding signal (z-score),[27],-0.3
same,glycan array binding signal (z-score),[28],-0.283
same,glycan array binding signal (z-score),[29],-0.287
same,glycan array binding signal (z-score),[30],-0.285
